# From PubChem BioAssay AID1745853 (National Center for Advancing Translational Sciences (NCATS), 2022)
# The list shows a part of the results. These are further read-outs of the screen, such as a control signal, another cell line or another target. No call is given for them.
# Columns and labels:
# Assay in all cases: Primary Screen for Target Class Profiling of Small Molecule Inhibitors of Methyltransferases
# [1] = target: Glycine N-methyltransferase (Homo sapiens) (UniProt Q14749); conditions: purified enzyme, MTase-Glo SAH luminescence; measured here: GNMT inhibition; at 40 µM; stronger effect = lower value
# In short: (§1)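 Each enzyme was reacted with SAM and its substrate, with compounds tested once at 40 uM; SAH formed was read by MTase-Glo luminescence.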
# [2] = target: Guanidinoacetate N-methyltransferase (Homo sapiens) (UniProt Q14353); conditions: purified enzyme, MTase-Glo SAH luminescence; measured here: GAMT inhibition; at 40 µM; stronger effect = lower value
# In short: as §1
# [3] = target: Histamine N-methyltransferase (Homo sapiens) (UniProt P50135); conditions: purified enzyme, MTase-Glo SAH luminescence; measured here: HNMT inhibition; at 40 µM; stronger effect = lower value
# In short: as §1
# [4] = target: Nicotinamide N-methyltransferase (Homo sapiens) (UniProt P40261); conditions: purified enzyme, MTase-Glo SAH luminescence; measured here: NNMT inhibition; at 40 µM; stronger effect = lower value
# In short: as §1
# [5] = target: Phenylethanolamine N-methyltransferase (Homo sapiens) (UniProt P11086); conditions: purified enzyme, MTase-Glo SAH luminescence; measured here: PNMT inhibition; at 40 µM; stronger effect = lower value
# In short: as §1
# % is scaled to controls: 0 for no effect and ±100 for the full control effect.
Compound,"activity change, negative = inhibition [1] [%]","activity change, negative = inhibition [2] [%]","activity change, negative = inhibition [3] [%]","activity change, negative = inhibition [4] [%]","activity change, negative = inhibition [5] [%]"
CC(C)c1ccc(S(=O)(=O)c2nnn3c2nc(N2CCOCC2)c2ccccc23)cc1,-11.7,1.95,-4.77,-11.1,-11.2
O=C1CCCC2=C1C(c1ccccc1Br)N=C(Nc1nc3ccccc3o1)N2 (stereo unspecified),–,-4.92,–,-17.4,2.98
CCCNCCc1ccc(NS(=O)(=O)c2ccc(OC(F)(F)F)cc2)cc1,2.56,11.1,8.49,-6.38,4.68
CNC(=O)Cn1ccc2cc(S(=O)(=O)N3CCCCC3)ccc21,3.37,5,0.251,3.66,0.053
Cc1ccccc1-c1cn(C)c(=O)n2cc(CNc3ccccc3)nc12,-7.6,-13.1,-4.44,-29.1,-6.03
COc1cc(/C=C/C=O)cc(OC)c1O[C@@H]1O[C@H](CO)[C@@H](O)[C@H](O)[C@H]1O,4.5,4.97,10.2,-6.58,2.88
CC(C)Cn1c(=O)c2ccc(C(=O)NC3CCCC3)cc2n2c(=O)n(Cc3ccc(Cl)cc3)nc12,3.78,7,5.05,1.07,4.68
CC1CC(C)CN(S(=O)(=O)c2ccc3c(c2)oc(=O)n3CC(=O)NCc2ccccn2)C1 (stereo unspecified),0.157,6.04,6.02,9.74,0.494
Cn1cnc2c(F)c(Nc3ccc(Br)cc3Cl)c(C(=O)NOCCO)cc21,-18,-10.5,-2.83,-22.7,-1.4
COC(=O)C(CC1(O)c2ccccc2N2C(=O)C(C)(C)N(O)C21)n1cnc2ccccc2c1=O (stereo unspecified),3.12,-0.496,6.32,-27.2,0.074
C=Cc1ccc(Cn2nc3n(CC(C)C)c(=O)c4ccc(C(=O)NC(C)C)cc4n3c2=O)cc1,0.213,4.66,-4.05,-1.24,0.738
COc1ccccc1C(C(=O)O)N1CCC(OCc2cccnc2)CC1 (stereo unspecified),-2.39,-3.11,-1.32,3.83,-1.05
CN1CCC(Nc2ncc(C(C)(C)C(=O)O)c(N3CCOCC3)n2)CC1,-0.211,-2.65,-3.9,-2.25,1.76
O=C(Cn1c(=O)oc2cc(S(=O)(=O)NC3CCCC3)ccc21)N1CCCC1,0.245,2.49,7.98,17.2,3.92
C=C1C(O)C[C@@H]2C(C(=O)O)=CO[C@@H](O[C@@H]3O[C@H](CO)[C@@H](O)[C@H](O)[C@H]3OC(=O)c3ccc(O)cc3)[C@H]12 (stereo partly specified),-0.144,-4.44,7.93,-19.4,3.08
CCCN1C(=O)c2c(C(=O)N3CCN(c4ccccc4)CC3)ncn2CC1(C)C(=O)NCc1ccc(F)cc1 (stereo unspecified),0.558,2.04,9.66,6.87,10.1
O=C(CCc1nnn2c1CN(Cc1cn[nH]c1-c1ccc(F)cc1)CC2)N1CCCC1,-4.43,-7.58,-2.62,-13.3,-4.93
Cc1ccc(CN2C(=O)c3nc4ccccc4n3CC2(C)C(=O)NC2CCCCC2)cc1 (stereo unspecified),-4.85,0.588,3.06,2.63,-1.79
C/C=C/C=C/C(=O)N1CC[C@]23c4ccccc4N[C@H]4N(C)c5cccc6c5[C@@]42CCN([C@H]6C2OC2(C)C)[C@H]13 (stereo partly specified),0,-7.86,0.181,-22.4,-3.23

Compound,"activity change, negative = inhibition [1] [%]","activity change, negative = inhibition [2] [%]","activity change, negative = inhibition [3] [%]","activity change, negative = inhibition [4] [%]","activity change, negative = inhibition [5] [%]"
O=C(O)CC1CCCCN(Cc2ccccc2)C1=O (stereo unspecified),-6.18,-7.88,-2.87,-10.4,-4.32
OC[C@@H]1O[C@H](CNCc2cccc(Cl)c2)[C@H](N2CCN(c3ccccn3)CC2)[C@@H]1O,-2.51,-1.52,-3.63,-2.88,-4.7
CCCCCCCCCCCCCCCC(=O)N[C@H](CN1CCOCC1)[C@H](O)c1ccccc1,–,19,–,4.05,9.59
CC1=C[C@@H](CN2CCC(O)CC2)[C@H](C(C)C)C[C@H]1Cc1nnc(-c2ccncc2)o1,-5.27,-10.4,-11.9,-13.5,-5.17
Cc1nn(C)c(=O)n1C1CCN(C(=O)c2ccco2)CC1,-4.29,-5.88,-1.87,-6.86,-0.137
COc1ccc(OC)c2c1cc1n2CC(C)(C(=O)NC2CCCCC2)N(CCC(C)C)C1=O (stereo unspecified),-13.9,-4.37,-8.98,-20.1,-21.6
O=C(CCC1CCCN(Cc2cccn2-c2ccccn2)C1)Nc1ccccc1F (stereo unspecified),-4.79,0.409,-49.9,-8.99,6.69
Cc1ccc2c(c1)c(-n1cccc1)c1n2CC(C)(C(=O)NC2CCCC2)N(Cc2ccco2)C1=O (stereo unspecified),-5.21,4.17,-1.93,-15.5,-3
COCCCNC(=O)CCc1nnc2n(Cc3ccc(F)cc3)c(=O)c3ccccc3n12,-4.55,0,6.81,4.05,-0.547
O=C(NC1CCCN(c2cc(-c3ccc(F)cc3)[nH]n2)C1)c1cnccn1 (stereo unspecified),-8.69,-1.15,-2.08,-8.51,4.9
Cc1ccccc1-n1nc(-c2c(-c3ccc(F)cc3)nn3c2NC[C@@H](CO)C3)ccc1=O,-2.67,-5.14,3.03,-23.6,-10.2
Cc1cnc(CCNC(=O)Cc2ccncc2)n1CC1CC1,-2.84,-3.94,-19.9,-8.49,-4.32
CN(Cc1nccs1)C(=O)CC(c1ccccc1)c1cccc(Cl)c1 (stereo unspecified),-3.85,-0.002,0.507,-12,-0.657
COc1ccc2c(c1)CC(NS(=O)(=O)c1ccc(C)cc1)CO2 (stereo unspecified),-11.1,-2.28,-2.44,-4.54,-3.5
CC1=C(C)C(=O)OC(C(C)C2C(O)CC3C4C5OC5C5(O)CC(OC6OC(CO)C(O)C(O)C6O)CC(O)C5(C)C4CCC32C)C1 (stereo unspecified),0,-1.27,2.62,-14.4,2.5
CCOc1ccc(CN2C(=O)c3nc4ccccc4n3CC2(C)C(=O)NC2CCCC(C)C2C)cc1 (stereo unspecified),-5.63,0,-2.6,-3.79,-1.15
COc1cccc(CNC(=O)c2cc3n(n2)CC(C)(C(=O)NCc2ccc(F)cc2)N(C)C3=O)c1 (stereo unspecified),6.05,4.83,3.61,1.4,1.25
CC(C)=CCC/C(C)=C/CC/C(C)=C/CC[C@]1(C)CCc2cc(O)cc(C)c2O1,0,-17.2,0.451,-24.2,-2.22
Cc1noc(C)c1[S+](=O)([O-])N1CCn2cc(C(=O)Nc3ccc(Cl)cc3Cl)nc2C1,-4.09,-5.87,-2.86,-5.29,-9.66
